Reference: the supplement of paper PMC7125110
This sample is rich in variants without activity.

B1: glmS ribozyme (parent)
chain: AUAAAAGCGCCAGAACUACAGAAAUGUAGUUGACGAGGAGGAGGUUUAUCGAAUUUUCGGCGGAUGCCUCCAAA

Key:
Conditions in all cases: with glucosamine-6-phosphate
glucosamine-6-phosphate [1] = variants of: B1; assay: self-cleavage kobs at 640 uM GlcN6P; higher = faster cleavage; RNA array
In short: (§1)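 Glucosamine-6-phosphate (40 μM to 10 mM) in HEPES/KCl/Mg(OAc)2 buffer was flowed over sequenced MiSeq chips, and tiles were imaged over ~14 h. Barcoded ribozyme variants there had been transcribed in situ by E. coli RNA polymerase and were tracked through a hybridised Cy3 probe at 37 °C. One- or two-exponential decay fits to per-tile medians, normalised to baseline and to non-cleaving reference variants, gave kobs. kcat and KM came from weighted Michaelis–Menten fits across concentrations.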

glucosamine-6-phosphate [2] = variants of: B1; assay: self-cleavage kobs at 10000 uM GlcN6P; higher = faster cleavage; RNA array
In short: as §1

glucosamine-6-phosphate [3] = variants of: B1; assay: self-cleavage kobs at 2500 uM GlcN6P; higher = faster cleavage; RNA array
In short: as §1

glucosamine-6-phosphate [4] = variants of: B1; assay: self-cleavage kobs at 160 uM GlcN6P; higher = faster cleavage; RNA array
In short: as §1

G37U G40U C61U C68U
self-cleavage kobs at 640 uM GlcN6P (glucosamine-6-phosphate [1]): < 1e-05 s⁻¹
self-cleavage kobs at 10000 uM GlcN6P (glucosamine-6-phosphate [2]): < 1e-05 s⁻¹

G38C G60U U65C
self-cleavage kobs at 640 uM GlcN6P (glucosamine-6-phosphate [1]): < 1e-05 s⁻¹
self-cleavage kobs at 2500 uM GlcN6P (glucosamine-6-phosphate [3]): < 1e-05 s⁻¹
self-cleavage kobs at 10000 uM GlcN6P (glucosamine-6-phosphate [2]): < 1e-05 s⁻¹

G37A G40C C50G
self-cleavage kobs at 640 uM GlcN6P (glucosamine-6-phosphate [1]): < 1e-05 s⁻¹
self-cleavage kobs at 2500 uM GlcN6P (glucosamine-6-phosphate [3]): < 1e-05 s⁻¹

G38C U49C
self-cleavage kobs at 640 uM GlcN6P (glucosamine-6-phosphate [1]): < 1e-05 s⁻¹
self-cleavage kobs at 2500 uM GlcN6P (glucosamine-6-phosphate [3]): < 1e-05 s⁻¹

A36C U56A
self-cleavage kobs at 640 uM GlcN6P (glucosamine-6-phosphate [1]): < 1e-05 s⁻¹
self-cleavage kobs at 160 uM GlcN6P (glucosamine-6-phosphate [4]): < 1e-05 s⁻¹
self-cleavage kobs at 2500 uM GlcN6P (glucosamine-6-phosphate [3]): < 1e-05 s⁻¹

A36C U56G
self-cleavage kobs at 640 uM GlcN6P (glucosamine-6-phosphate [1]): < 1e-05 s⁻¹
self-cleavage kobs at 160 uM GlcN6P (glucosamine-6-phosphate [4]): < 1e-05 s⁻¹

G35A C67G
self-cleavage kobs at 640 uM GlcN6P (glucosamine-6-phosphate [1]): < 1e-05 s⁻¹
self-cleavage kobs at 160 uM GlcN6P (glucosamine-6-phosphate [4]): < 1e-05 s⁻¹
self-cleavage kobs at 2500 uM GlcN6P (glucosamine-6-phosphate [3]): < 1e-05 s⁻¹

G35U G40A A52U
self-cleavage kobs at 640 uM GlcN6P (glucosamine-6-phosphate [1]): < 1e-05 s⁻¹
self-cleavage kobs at 2500 uM GlcN6P (glucosamine-6-phosphate [3]): < 1e-05 s⁻¹

A36U A48C C67G
self-cleavage kobs at 640 uM GlcN6P (glucosamine-6-phosphate [1]): < 1e-05 s⁻¹

G35C G62A A64G
self-cleavage kobs at 640 uM GlcN6P (glucosamine-6-phosphate [1]): < 1e-05 s⁻¹
self-cleavage kobs at 160 uM GlcN6P (glucosamine-6-phosphate [4]): < 1e-05 s⁻¹

G38C G63A
self-cleavage kobs at 640 uM GlcN6P (glucosamine-6-phosphate [1]): < 1e-05 s⁻¹
self-cleavage kobs at 160 uM GlcN6P (glucosamine-6-phosphate [4]): < 1e-05 s⁻¹
self-cleavage kobs at 2500 uM GlcN6P (glucosamine-6-phosphate [3]): < 1e-05 s⁻¹

G40U G63A C71A
self-cleavage kobs at 640 uM GlcN6P (glucosamine-6-phosphate [1]): < 1e-05 s⁻¹
self-cleavage kobs at 160 uM GlcN6P (glucosamine-6-phosphate [4]): < 1e-05 s⁻¹
self-cleavage kobs at 10000 uM GlcN6P (glucosamine-6-phosphate [2]): < 1e-05 s⁻¹

G35U A36C A39G A48U C50U
self-cleavage kobs at 640 uM GlcN6P (glucosamine-6-phosphate [1]): < 1e-05 s⁻¹
self-cleavage kobs at 10000 uM GlcN6P (glucosamine-6-phosphate [2]): < 1e-05 s⁻¹

A36C G41C U47C
self-cleavage kobs at 640 uM GlcN6P (glucosamine-6-phosphate [1]): < 1e-05 s⁻¹

A36U G51C
self-cleavage kobs at 640 uM GlcN6P (glucosamine-6-phosphate [1]): < 1e-05 s⁻¹
self-cleavage kobs at 160 uM GlcN6P (glucosamine-6-phosphate [4]): < 1e-05 s⁻¹
self-cleavage kobs at 10000 uM GlcN6P (glucosamine-6-phosphate [2]): < 1e-05 s⁻¹

G37C U55G C67U
self-cleavage kobs at 640 uM GlcN6P (glucosamine-6-phosphate [1]): < 1e-05 s⁻¹

A39C G43C C50G G59U
self-cleavage kobs at 640 uM GlcN6P (glucosamine-6-phosphate [1]): < 1e-05 s⁻¹
self-cleavage kobs at 2500 uM GlcN6P (glucosamine-6-phosphate [3]): < 1e-05 s⁻¹

G37C G38A G51A
self-cleavage kobs at 640 uM GlcN6P (glucosamine-6-phosphate [1]): < 1e-05 s⁻¹

G38U G41U U57A C68A
self-cleavage kobs at 640 uM GlcN6P (glucosamine-6-phosphate [1]): < 1e-05 s⁻¹
self-cleavage kobs at 2500 uM GlcN6P (glucosamine-6-phosphate [3]): < 1e-05 s⁻¹
self-cleavage kobs at 10000 uM GlcN6P (glucosamine-6-phosphate [2]): < 1e-05 s⁻¹

C34U G38U G43C
self-cleavage kobs at 640 uM GlcN6P (glucosamine-6-phosphate [1]): < 1e-05 s⁻¹

G40U A64C
self-cleavage kobs at 640 uM GlcN6P (glucosamine-6-phosphate [1]): < 1e-05 s⁻¹
self-cleavage kobs at 160 uM GlcN6P (glucosamine-6-phosphate [4]): < 1e-05 s⁻¹

A36C U54G A64G
self-cleavage kobs at 640 uM GlcN6P (glucosamine-6-phosphate [1]): < 1e-05 s⁻¹

A36U A39U U69A
self-cleavage kobs at 640 uM GlcN6P (glucosamine-6-phosphate [1]): < 1e-05 s⁻¹
self-cleavage kobs at 2500 uM GlcN6P (glucosamine-6-phosphate [3]): < 1e-05 s⁻¹

G35U G66A
self-cleavage kobs at 640 uM GlcN6P (glucosamine-6-phosphate [1]): < 1e-05 s⁻¹
self-cleavage kobs at 160 uM GlcN6P (glucosamine-6-phosphate [4]): < 1e-05 s⁻¹
self-cleavage kobs at 2500 uM GlcN6P (glucosamine-6-phosphate [3]): < 1e-05 s⁻¹
self-cleavage kobs at 10000 uM GlcN6P (glucosamine-6-phosphate [2]): < 1e-05 s⁻¹

A39U C61G C67G
self-cleavage kobs at 640 uM GlcN6P (glucosamine-6-phosphate [1]): < 1e-05 s⁻¹
self-cleavage kobs at 2500 uM GlcN6P (glucosamine-6-phosphate [3]): < 1e-05 s⁻¹

G40A U45C U56C U57A
self-cleavage kobs at 640 uM GlcN6P (glucosamine-6-phosphate [1]): < 1e-05 s⁻¹
self-cleavage kobs at 160 uM GlcN6P (glucosamine-6-phosphate [4]): < 1e-05 s⁻¹
self-cleavage kobs at 2500 uM GlcN6P (glucosamine-6-phosphate [3]): < 1e-05 s⁻¹

G35C A53U G60U
self-cleavage kobs at 640 uM GlcN6P (glucosamine-6-phosphate [1]): < 1e-05 s⁻¹
self-cleavage kobs at 10000 uM GlcN6P (glucosamine-6-phosphate [2]): < 1e-05 s⁻¹

G37C G41U C67U
self-cleavage kobs at 640 uM GlcN6P (glucosamine-6-phosphate [1]): < 1e-05 s⁻¹
self-cleavage kobs at 160 uM GlcN6P (glucosamine-6-phosphate [4]): < 1e-05 s⁻¹

G38U U47C U49A C50U
self-cleavage kobs at 640 uM GlcN6P (glucosamine-6-phosphate [1]): < 1e-05 s⁻¹

G37C A48U A52G
self-cleavage kobs at 640 uM GlcN6P (glucosamine-6-phosphate [1]): < 1e-05 s⁻¹
self-cleavage kobs at 2500 uM GlcN6P (glucosamine-6-phosphate [3]): < 1e-05 s⁻¹

A36U A39U U45C C58U
self-cleavage kobs at 640 uM GlcN6P (glucosamine-6-phosphate [1]): < 1e-05 s⁻¹
self-cleavage kobs at 2500 uM GlcN6P (glucosamine-6-phosphate [3]): < 1e-05 s⁻¹

A36U A53C
self-cleavage kobs at 640 uM GlcN6P (glucosamine-6-phosphate [1]): < 1e-05 s⁻¹
self-cleavage kobs at 160 uM GlcN6P (glucosamine-6-phosphate [4]): < 1e-05 s⁻¹
self-cleavage kobs at 10000 uM GlcN6P (glucosamine-6-phosphate [2]): < 1e-05 s⁻¹

A36G G43U
self-cleavage kobs at 640 uM GlcN6P (glucosamine-6-phosphate [1]): < 1e-05 s⁻¹
self-cleavage kobs at 10000 uM GlcN6P (glucosamine-6-phosphate [2]): < 1e-05 s⁻¹

G35C U49G C71A
self-cleavage kobs at 640 uM GlcN6P (glucosamine-6-phosphate [1]): < 1e-05 s⁻¹

A39G G40C A48C
self-cleavage kobs at 640 uM GlcN6P (glucosamine-6-phosphate [1]): < 1e-05 s⁻¹

A36C U47G G51C
self-cleavage kobs at 640 uM GlcN6P (glucosamine-6-phosphate [1]): < 1e-05 s⁻¹

A39C G43U G62C A64U C70U
self-cleavage kobs at 640 uM GlcN6P (glucosamine-6-phosphate [1]): < 1e-05 s⁻¹
self-cleavage kobs at 2500 uM GlcN6P (glucosamine-6-phosphate [3]): < 1e-05 s⁻¹

G38C G43U A64C
self-cleavage kobs at 640 uM GlcN6P (glucosamine-6-phosphate [1]): < 1e-05 s⁻¹
self-cleavage kobs at 2500 uM GlcN6P (glucosamine-6-phosphate [3]): < 1e-05 s⁻¹

G37A G43C A64U
self-cleavage kobs at 640 uM GlcN6P (glucosamine-6-phosphate [1]): < 1e-05 s⁻¹

G35A A39C C71A
self-cleavage kobs at 640 uM GlcN6P (glucosamine-6-phosphate [1]): < 1e-05 s⁻¹

G38U U55C U56G
self-cleavage kobs at 640 uM GlcN6P (glucosamine-6-phosphate [1]): < 1e-05 s⁻¹

G40U C61G U65G
self-cleavage kobs at 640 uM GlcN6P (glucosamine-6-phosphate [1]): < 1e-05 s⁻¹
self-cleavage kobs at 2500 uM GlcN6P (glucosamine-6-phosphate [3]): < 1e-05 s⁻¹

G35C A52U C67U C68A
self-cleavage kobs at 640 uM GlcN6P (glucosamine-6-phosphate [1]): < 1e-05 s⁻¹

G40C G60U C67G
self-cleavage kobs at 640 uM GlcN6P (glucosamine-6-phosphate [1]): < 1e-05 s⁻¹
self-cleavage kobs at 160 uM GlcN6P (glucosamine-6-phosphate [4]): < 1e-05 s⁻¹
self-cleavage kobs at 2500 uM GlcN6P (glucosamine-6-phosphate [3]): < 1e-05 s⁻¹

G38U A39U
self-cleavage kobs at 640 uM GlcN6P (glucosamine-6-phosphate [1]): < 1e-05 s⁻¹
self-cleavage kobs at 160 uM GlcN6P (glucosamine-6-phosphate [4]): < 1e-05 s⁻¹

A39U G40U G60C C70A
self-cleavage kobs at 640 uM GlcN6P (glucosamine-6-phosphate [1]): < 1e-05 s⁻¹
self-cleavage kobs at 160 uM GlcN6P (glucosamine-6-phosphate [4]): < 1e-05 s⁻¹

A39G G51C C71U
self-cleavage kobs at 640 uM GlcN6P (glucosamine-6-phosphate [1]): < 1e-05 s⁻¹
self-cleavage kobs at 10000 uM GlcN6P (glucosamine-6-phosphate [2]): < 1e-05 s⁻¹

A39C G59C C68U
self-cleavage kobs at 640 uM GlcN6P (glucosamine-6-phosphate [1]): < 1e-05 s⁻¹

A36U G43A C58U
self-cleavage kobs at 640 uM GlcN6P (glucosamine-6-phosphate [1]): < 1e-05 s⁻¹
self-cleavage kobs at 160 uM GlcN6P (glucosamine-6-phosphate [4]): < 1e-05 s⁻¹
self-cleavage kobs at 2500 uM GlcN6P (glucosamine-6-phosphate [3]): < 1e-05 s⁻¹

C34U G40C A42G U49G U55C
self-cleavage kobs at 640 uM GlcN6P (glucosamine-6-phosphate [1]): < 1e-05 s⁻¹
self-cleavage kobs at 2500 uM GlcN6P (glucosamine-6-phosphate [3]): < 1e-05 s⁻¹

G38A A42C U49C
self-cleavage kobs at 640 uM GlcN6P (glucosamine-6-phosphate [1]): < 1e-05 s⁻¹
self-cleavage kobs at 2500 uM GlcN6P (glucosamine-6-phosphate [3]): < 1e-05 s⁻¹

A36U G43A
self-cleavage kobs at 640 uM GlcN6P (glucosamine-6-phosphate [1]): < 1e-05 s⁻¹
self-cleavage kobs at 2500 uM GlcN6P (glucosamine-6-phosphate [3]): < 1e-05 s⁻¹
self-cleavage kobs at 10000 uM GlcN6P (glucosamine-6-phosphate [2]): < 1e-05 s⁻¹

G40A U54G A64U
self-cleavage kobs at 640 uM GlcN6P (glucosamine-6-phosphate [1]): < 1e-05 s⁻¹

C34U G35C C50U C67A
self-cleavage kobs at 640 uM GlcN6P (glucosamine-6-phosphate [1]): < 1e-05 s⁻¹
self-cleavage kobs at 2500 uM GlcN6P (glucosamine-6-phosphate [3]): < 1e-05 s⁻¹

G37C G41C
self-cleavage kobs at 640 uM GlcN6P (glucosamine-6-phosphate [1]): < 1e-05 s⁻¹
self-cleavage kobs at 160 uM GlcN6P (glucosamine-6-phosphate [4]): < 1e-05 s⁻¹
self-cleavage kobs at 2500 uM GlcN6P (glucosamine-6-phosphate [3]): < 1e-05 s⁻¹

G37A G62U
self-cleavage kobs at 640 uM GlcN6P (glucosamine-6-phosphate [1]): < 1e-05 s⁻¹
self-cleavage kobs at 160 uM GlcN6P (glucosamine-6-phosphate [4]): < 1e-05 s⁻¹
self-cleavage kobs at 2500 uM GlcN6P (glucosamine-6-phosphate [3]): < 1e-05 s⁻¹
self-cleavage kobs at 10000 uM GlcN6P (glucosamine-6-phosphate [2]): < 1e-05 s⁻¹
